Results on 86 sequences are retold here after the supplement of paper PMC3334620.

In all, about 33,000 sequences were measured (“E-score (-0.5 to 0.5)”: median about -0.041, highest 2% from about 0.37 on). The list shows a part of the results.

The target of the assay is T1, Ecm22 (UniProt Q05958).
T1 sequence: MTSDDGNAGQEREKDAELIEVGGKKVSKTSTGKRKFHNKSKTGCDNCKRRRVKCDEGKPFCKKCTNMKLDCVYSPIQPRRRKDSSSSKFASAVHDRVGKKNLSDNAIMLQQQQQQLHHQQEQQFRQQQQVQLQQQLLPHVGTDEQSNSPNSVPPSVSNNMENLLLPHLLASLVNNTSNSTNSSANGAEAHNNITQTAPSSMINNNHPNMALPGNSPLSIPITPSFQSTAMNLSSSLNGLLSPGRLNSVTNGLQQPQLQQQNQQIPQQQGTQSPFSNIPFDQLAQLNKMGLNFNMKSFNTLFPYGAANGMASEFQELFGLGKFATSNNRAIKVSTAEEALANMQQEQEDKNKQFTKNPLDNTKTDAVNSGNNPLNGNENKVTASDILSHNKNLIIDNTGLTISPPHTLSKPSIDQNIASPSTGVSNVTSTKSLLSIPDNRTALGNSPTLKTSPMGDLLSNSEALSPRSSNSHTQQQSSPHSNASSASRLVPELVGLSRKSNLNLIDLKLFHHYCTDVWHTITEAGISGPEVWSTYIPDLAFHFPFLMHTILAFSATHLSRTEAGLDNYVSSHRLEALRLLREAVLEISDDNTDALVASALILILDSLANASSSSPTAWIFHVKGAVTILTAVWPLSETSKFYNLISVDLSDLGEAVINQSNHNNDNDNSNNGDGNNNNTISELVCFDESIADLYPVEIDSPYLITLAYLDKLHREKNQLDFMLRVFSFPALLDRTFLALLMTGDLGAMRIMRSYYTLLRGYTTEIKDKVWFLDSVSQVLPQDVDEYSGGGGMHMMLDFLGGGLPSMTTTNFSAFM
In words: PBM E-score (8-mer binding enrichment) (E-score (-0.5 to 0.5)); higher = stronger / more preferred TF binding; most listed sequences are background and not binding sites. Particulars: protein concentration: 200 nM; construct: GST-full length. In short, it runs like this:
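Universal all-10-mer Agilent arrays, fresh or stripped once, were converted to double-stranded form by primer extension. GST-tagged yeast transcription factors from PURExpress in vitro transcription/translation, full-length or DNA-binding domain only, were applied at about 100-200 nM and detected with fluorescent anti-GST. After masliner normalisation, the Universal PBM Analysis Suite scored each ungapped eight-base word together with its reverse complement by E-score.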
Consider TCAGGTAA, for which the “PBM E-score” value was -0.171.
As for AGCAGTTC, the figure is -0.129; as for AAATGGAC, -0.0777; as for CGTTATAA, 0.14.
As for ATCAGCCA, the figure is -0.0405; as for TACGGGGA, 0.348.
As for AGGCCATC, the figure is -0.119.
Regarding TCTTATAA, the “PBM E-score” value worked out at 0.0801.
As for TCGGATAA, the “PBM E-score” value was 0.372.
For AAAAGGGT the value was -0.0721; for AGTCCCCA, -0.267.
As for ATCGCCGA, the figure is 0.00202; as for ATTAAAGC, -0.0537; as for CAGCGCTC, -0.23.
For the sequence TCACTCCA, the “PBM E-score” value is -0.141.
As for CGCGTAAC, the figure is 0.142; as for CGGTCAGA, -0.0542.
As for CTTCGCGA, the figure is 0.234; as for TCAACGAA, 0.187.
For AGCGAAAA the value was 0.15; for ATGGCCAG, -0.231.
GTATGCCA: the “PBM E-score” value was -0.0264.
Regarding CAATCTTA, the “PBM E-score” value came to 0.00208.
For AACGCGGT the value was 0.11; for ACTTTCCC, -0.207; for CTTGTTTA, -0.00529.
With CCGTGATC, the “PBM E-score” value is -0.0217.
For ACCTTGCA the value was 0.00298; for ACCAGCGG, -0.316; for CCTCAAGA, -0.271.
Regarding AGGTAACT, the “PBM E-score” value was -0.122.
As for CCCTTTCC, the figure is -0.176; as for ACCAACAA, 0.0291.
For AAAGAGAA the value was -0.142; for AGCCGGCC, -0.201.
For ACCTACTC the value was -0.125; for CACGGTCA, -0.161.
AAGTCAGA: the “PBM E-score” value was -0.268.
For AAGCTTGA the value was -0.212; for GAAATATC, 0.211.
As for AGTATGTC, the figure is -0.0116.
As for GCCCAAAC, the figure is 0.0298.
Turning to AAAGTCTT, the “PBM E-score” value was -0.127.
As for TTGAAAAA, the “PBM E-score” value is -0.0492.
With CCCCCAGA, the “PBM E-score” value was -0.145.
On to AGAGAAGA, for which the “PBM E-score” value is -0.0414.
As for ACGACGAA, the figure is 0.365.
On to ACTCTACT, for which the “PBM E-score” value is -0.0259.
For ATTGCGTC, the “PBM E-score” value is -0.223.
As for CACCCAAC, the figure is -0.0777.
For CGTAATTC the value was 0.293; for AACTTATG, -0.0748; for CGCCAGTC, 0.014.
As for ATAAGCTA, the figure is -0.0667; as for CTTAACCC, -0.0863; as for ACTTGCAG, -0.139.
As to AACGTAAG, the “PBM E-score” value came to 0.0805.
As for CTTGCAGC, the figure is -0.147; as for GATTCTGA, 0.101; as for ATCTTTAC, 0.17.
As for CAATACTG, the figure is -0.0536.
With GCAAGCTA, the “PBM E-score” value is -0.145.
As for ATTAGATC, the “PBM E-score” value was -0.0252.
For CACCTACA the value was -0.239; for AACTGACT, 0.0236.
For GCGTACAC the value was 0.252; for ATCGGATG, 0.127.
For ACTACAAA the value was -0.028; for TTAGCTAA, -0.182.
Turning to ACCACAAG, the “PBM E-score” value is -0.255.
For CGGTCCGC the value was 0.141; for ATTGCGTG, 0.0623; for ACGATCCG, 0.366.
As for GGTCGAGA, the figure is -0.0974; as for ATGTCGAG, -0.0984.
For TAATCGTA the value was 0.418.
With CCCAAAAA, the “PBM E-score” value was -0.227.
As for TCCTGAGA, the figure is -0.243; as for AGAGGATC, -0.0672.
Consider AAGTAATA, for which the “PBM E-score” value worked out at 0.0988.
For AGTTCAAT the value was -0.152; for CCAAGAAC, -0.00212; for GCACACAC, -0.00107.
On to GTCCACAA, for which the “PBM E-score” value is -0.202.
For ACCTAATG the value was -0.232; for CCGCCTAC, -0.0607.
